Source: PubChem BioAssay AID485281 (National Center for Advancing Translational Sciences (NCATS), 2010)
Values joined by “and” are separate entries in the source; they are usually repeats but may differ in a detail not shown here. Equal entries are not always repeated. The campaign covered roughly 350,000 compounds. About 260 (0.074%) were called active. The inconclusive results got no clear call from the source; some entries with a clear call stand among them for comparison. The call rests on the fitted dose curve; in most records, active means well fitted inhibition curve with a large enough effect; inconclusive means small, poorly fitted or top-dose-only effect; inactive means no such curve, though single readings can be large or run the other way. A potency beside an inconclusive call is a rough fit, not a confirmed value.

Target: Ferritin light chain (Equus caballus) (UniProt P02791)
Chain of UniProt P02791 (P02791 whole entry, looked up): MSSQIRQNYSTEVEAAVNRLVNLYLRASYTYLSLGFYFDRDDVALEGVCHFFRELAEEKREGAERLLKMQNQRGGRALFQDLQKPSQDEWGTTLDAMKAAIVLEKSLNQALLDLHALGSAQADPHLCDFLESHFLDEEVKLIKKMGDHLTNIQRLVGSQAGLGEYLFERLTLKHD
Test: qHTS Assay for Identification of Novel General Anesthetics; further: nearly all actives have a fitted effect of over 20% in size
Settings: apoferritin/1-aminoanthracene competitive binding, fluorescence; series mostly up to 77.5 µM
How it was run: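 Concentration-response curves derived by four-parameter Hill fitting of normalized fluorescence, where compounds displaced 1-AMA from 10 uM horse apoferritin following a brief 10 min room-temperature incubation; propofol titration acted as positive control.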
Potency means the concentration at half of the fitted maximal effect; tags describe the fitted curve by direction and shape.

| SMILES | Potency |
| --- | --- |
| CCCc1ccc2oc(C(=O)NCCN3CCCC(O)C3)c(C)c2c1 (stereo not drawn) | inconclusive: 39.8 µM [inhibitor, single point] |
| CC(CNC(=O)c1cc(COc2ccc3ncccc3c2)on1)c1ccccc1 (stereo not drawn) | inconclusive: 15.8 µM [inhibitor, partial curve] |
| CC(C)c1nc(N2CCN(C(=O)c3ccccc3)CC2)c(C#N)c2c1COC(C)(C)C2 | inactive |
| CCc1ccc(C2=NN(CCC(=O)NCCc3ccc(Cl)cc3)C(=O)CC2)cc1 | inconclusive: 5.62 µM [inhibitor, full curve] |
| Cc1cc(-c2csc(N)n2)c(C)n1CCc1ccccc1 | inconclusive: 35.5 µM [inhibitor, partial curve] |
| COc1cccc(C(=O)N2N=C(c3cccc(OC)c3)CC2(O)C(F)(F)F)c1 (stereo not drawn) | inconclusive: 50.1 µM [inhibitor, single point] |
| Cc1ccc(CCNC(=O)CCSCc2ccccc2Cl)cc1 | inconclusive: 35.5 µM [inhibitor, single point] |
| CC(C)n1nnnc1SCC(=O)c1ccc2c(c1)OCCO2 | inconclusive: 39.8 µM [inhibitor, partial curve] |
| Cc1ccsc1C(=O)OCC(=O)NCc1ccco1 | inactive |
| Oc1ccccc1OCc1nc2ccccc2s1 | inconclusive: 25.1 µM [inhibitor, partial curve] |
| CCOC(=O)c1nnc2c(-c3ccc(Cl)cc3)c(C)nn2c1C | inconclusive: 28.2 µM [inhibitor, partial curve] |
| Cc1nn(CC(C)C)c(Cl)c1C(=O)N(c1ccc(Cl)cc1F)S(C)(=O)=O | inconclusive: 35.5 µM [inhibitor, single point] |
| NS(=O)(=O)c1ccc2c(c1)C1C=CCC1C(C1CC=CCC1)N2 (stereo not drawn) | inconclusive: 28.2 µM [inhibitor, single point] |
| CCOC(=O)CC1C(=O)NCCN1c1nc2c(C)cccn2c(=O)c1/C=C1\SC(=S)N(C(C)CC)C1=O (stereo not drawn) | inconclusive: 5.62 µM [inhibitor, single point] |
| COc1ccc([C@]23Cc4cc(OC)c(OC)cc4C(O2)C2=C(CCCC2=O)O3)cc1 | inconclusive: 3.16 µM [inhibitor, partial curve] |
| CCOC(=O)c1cnc2ccc(OCC)cc2c1N(C)Cc1ccccc1 | inconclusive: 35.5 µM [inhibitor, partial curve] |
| CCCC1C(=O)N(Cc2ccccc2)C(=O)CC1C (stereo not drawn) | inconclusive: 35.5 µM [inhibitor, partial curve] |
| COc1ccc(C2=Nn3c(nnc3-c3ccc(OC)cc3)SC2)cc1 | inconclusive: 31.6 µM [inhibitor, partial curve] and inconclusive: 28.2 µM [inhibitor, single point] |
